This is an account of results in the RNAGym collection of RNA variant scans (doi:10.1093/nar/gkz1192).

The source gives no read counts; variants with many changes may rest on few reads.

The labels stand for the following.
B1: CPEB3 Ribozyme (parent)
chain: UAACAGGGGGCCACAGCAGAAGCGUUCACGUCGCAGCCCCUGUCAGAUUCUGGUGAAUCUGCGAAUUCUGCUGUAUAUCUC

Variants of B1 are the subject of this data set. In words: self-cleavage, relative activity (ratio to wild type); higher = more cleavage; in vitro, sequencing. An outline of the steps:
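For each CPEB3 ribozyme variant, relative activity is its cleaved/total read fraction divided by the unmutated ribozyme's. Barcoded error-prone PCR libraries were transcribed by T7 RNA polymerase (5 hours, 37°C) and held in DNase I for 15 min before an EDTA stop, with cleavage occurring throughout. Template-switching reverse transcription and Illumina sequencing were used to read the RNAs. A 5-read minimum applied, and results are the mean of three batches.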
In the case of UAACAGGGGCCCACAGCAGUAGCGUUCACGUCGCAGCCCCUGCCAGAUUCUGGUGAAUCUGCGAAUUCUGCUGUAUAUCUC [G10C A20U U43C], the self-cleavage stood at 0.08.

Regarding UAACAGGGGCCCACAGCAGAAGCGUUCACGUCGCAGCCCCUGUCAGAUUCUGGUGGAUCUGCGAAUUAUGCUGUAUAUCUC [G10C A56G C68A], the self-cleavage worked out at 0.33.

As for UAACAGGGGCCCACAGCAGAGGCGUUCACGUCGCAGCCCCUGUCAGAUUCUGGUGAGUCUGCGAAUUCUGCAGUAUAUCUC [G10C A21G A57G U72A], the self-cleavage turned out to be 0.04.

Turning to UAACAGGGGCCCACAGCAGAAGUGUUCACGUCGCAGCCCCUGCCAGAUUCUGGUGAAUCUGCGAAUUCCGCUGUAUAUCUC [G10C C23U U43C U69C], the self-cleavage was determined as 0.11.

For UAACAGGGGCCCACAGCAGAAGCGUUCACGUCGCAGCCCCUGUCGGAUUCUGGUGAAGCUGCGAAUUCUGCUGUAUAUCUC [G10C A45G U58G], the self-cleavage came out at 0.19. For UAACAGGGGCCCACAGCAGAGGCGUUCACGUCGCAGCCCCUGUCAGAUUCUGGUGAACCUGCGAAUUCUGCCGUAUAUCUC [G10C A21G U58C U72C], the self-cleavage stood at 0.34. Then UAACAGGGGCCCACAGCAGAAGCGUUCACGUCGCAGCCCUUGUCAGAUUCUGGUGAAUCUGCGAAUCCUGCUGUAUAUCUC [G10C C40U U67C], with 0.09; and UAACAGGGGCCCACAGCAGAAGCGUUCACGUCGCGGCCCCGGUCGGAUUCUGGUGAAUCUGCGAAUUCUGCUGUAUAUCUC [G10C A35G U41G A45G], with 0.14; and UAACAGGGGCCCACAGCUGAAGCGUUCACGUCGCAGCCCCUGCCAGAUUCUGGUGAAUCUGCGAAUUCUGCUGUAUAUCUC [G10C A18U U43C], with 0.14.

For UAACAGGGGCCCACAGCAGUAGCGUUCACGCCGCAGCCCCUGUCAGAUUCUGGUGAAUCUGCGAAUUCUGCUGUAUAUCCC [G10C A20U U31C U80C], the self-cleavage was found to be 0.07. UAACAGGGGCCCACAGCAGUAGCGUUCGCGUCGGAGCCCCCGUCAGAUUCUGGUGAAUCUGCGGAUUCUGCUGUACAUCUC [G10C A20U A28G C34G U41C A64G U76C]: the self-cleavage came to 0.03. Then UAACAGGGGCCCACAGCAGAAGCGUUCACGUCGCAGCCCCUGUCUGAUUCUGGUGAAUCUGCGAAUUCUGCUGCAUAUCUC [G10C A45U U74C], with 0.17; and UAACAGGGGCCCACAGCAGGAGCGCUCACGUCGCAGCCCCUGUCAGAUUCUGGUGAAUCUGCGAAUUCUGCUGUAUAUCUC [G10C A20G U25C], with 0.24. For the variant UAACAGGGGCCCACAGCAGAAGCGUUCGCGUCGCAGCCCCUGUCAGAUUCUGGAGAAUCUGCGAAUUCUGCUGUAUAUCUC [G10C A28G U54A], the self-cleavage came out at 0.39. The figure for UAACAGGGGCCCACAGCAGAAGCGUUCACGUCGCAGCCCCUGUCAGAUUCUGGUGAGUCUGCGAAUUCCGCUGUAUAUCUC [G10C A57G U69C] is 0.1; for UAACAGGGGCCCACAGCAGGAGCGUUCACGUCGCAGCCCCUGUCAGAUUCUGGUGAAUCUUCGAAUUCUGCUGUAUAUCUC [G10C A20G G61U] it is 0.09. Then UAACAGGGGCCCACAGCAGAGGCGUUCACGUCGCAGCCCCUGUCAGAUUCUGGUGAAUCUGCGAAUCCUGCUGUAUAUCUC [G10C A21G U67C], with 0.28; and UAACAGGGGCCCACAGCAGAAGCGUUCACGUCGCAGCCCCUGUCGGAUUCUGGUGAAUCUGCGGAUUCCGCAGUAUAUCUC [G10C A45G A64G U69C U72A], with 0.09. Take UAACAGGGGCCCACAGCAGAAGCGUUAACGUCGCAGCCCCUGUCAGAUUCUGGUGUGUCUGCGAAUUCCGCUGUAUAUCUC [G10C C27A A56U A57G U69C]: the self-cleavage amounted to 0.07. Take UAACAGGGGCCCACAGCAGAAGCGUUCACGUCGCAGCCCCUGUCUGAUUCUGGUGAAUCUGCGAGUUCUGCUGUAUAUCUC [G10C A45U A65G]: the self-cleavage turned out to be 0.12.

For the variant UAACAGGGGCCCACAGCAGCAGCGUUCACGUCGCAGCCCCUGUCAGAUUCAGGUGAAUCUGCGAAUUCUGCUGUAUACCUC [G10C A20C U51A U78C], the self-cleavage was 0.19. In the case of UAACAGGGGCCCACAGCAGUAGCGUUCACGUCGCAGCCCCUGUCAGAUUCUGGUGAAUCUGCGAGUUCUGCUGUAUAUCUC [G10C A20U A65G], the self-cleavage came to 0.08. With UAACAGGGGCCCACAGCAGGAGCGUUCACGUCGCAGCCCCUGUCAGAUUCUGGCGAAUCUGCGAAUUCUGCUGUAUAUCUC [G10C A20G U54C], the self-cleavage worked out at 0.07. Then UAACAGGGGCCCACAGCAGAGGCGUUCACGUCGCAGCCCCUGUCAGAUACUGGUGAAUCUGCGAAUUCUGCUGUAUAUCUC [G10C A21G U49A], with 0.21; and UAACAGGGGCCCACAGCAGAAGCGUUCUCGUCGCAGCCCCUGUCAGGUUCUGGUGGAUCUGCGAAUUCUGCUGUACAUCUC [G10C A28U A47G A56G U76C], with 0.06; and UAACAGGGGCCCACAGCAGAGGCGUUCACGUCGCAGCCCCUGUCAGAUUCAGGUGAAUCCGCGAAUUCUGCCGUAUAUCUC [G10C A21G U51A U60C U72C], with 0.08.

As for UAACAGGGGCUCACAGCAGGAGCGUUCACGUCGCAGCCCCUGUCAGAUUCUGGUGAAUCUGCGAAUUCUGCUGUAUUUCUC [G10C C11U A20G A77U], the self-cleavage was 0.09.

Take UAACAGGGGCCCACAGCAGAAGCGUUCACGUCGCGGCCCGUGUCAGCUUCUGGUGAAUCUGCGAAUUCUGCUGUAUAUCUC [G10C A35G C40G A47C]: the self-cleavage worked out at 0.12. Take UAACAGGGGCCCACAGCAGAAGCGUUCACGUCGUAGCCCCUGUCAGAUUCUGGUGAAUCUGCGUAUUCUGCUGUAUAUCUC [G10C C34U A64U]: the self-cleavage is 0.05.

UAACAGGGGCCCACAGCUGAAGCGUUCACGUCGCAGCCCCUGUCAGACUCUGGUGAAUCUGCGAAUUCUGCUGUAUAUCUC [G10C A18U U48C]: the self-cleavage came out at 0.03.

Regarding UAACAGGGGCCCACAGCAGAAGCGUUCACGUCGCAGCCCUUGCCAGAUUCUGGUGAAUCAGCGAACUCUGCUGUAUAUCCC [G10C C40U U43C U60A U66C U80C], the self-cleavage is 0.12. Then UAACAGGGGCCCACAGCAGAAGUGUUCACGUCGCAGCCCCUGUCAGAUUCUGGUGAAUCUGCGAAUUCCGCUGUUUAUCUC [G10C C23U U69C A75U], with 0.15; and UAACAGGGGCCCACAGCAGAAGCGUUCACGUCGCAGCCCCUGUCUGAUUCUGGUGAAUCUGCGAAUUCUGCUAUAUAUCUC [G10C A45U G73A], with 0.11. For UAACAGGGGCCCACAGCAGGAGCGUUCACGGCGCAGCCCCUGUCAGAUUCUGGCGAAUCUGCGAAUUCUGCUGUAUAUCUC [G10C A20G U31G U54C], the self-cleavage was 0.18.
